In patent US20230009608A1, “GRK2 INHIBITORS AND USES THEREOF” (Cygnal Therapeutics, Inc., priority 2020, published 2023):
The name of at least one read-out is uncertain.

system: PAXF1657 control empty vector cell line; assay: 7-day proliferation assay, PAXF1657 control empty vector cell line (Example 9); assay type: cell-based; settings: Cell Line: PAXF1657 empty vector (EV) cell line
How it was run: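 Viability by CellTiter-Glo after 7 days at 37° C., with compound-containing media replaced on day 3. Cells (500/well, RPMI1640 + 10% FBS) were PAXF1657 pairs: GRK2 overexpression vs empty vector, or CRISPR GRK2 knockout vs non-targeting clones; doses 30 μM-0.0002 μM final, 10 points, 0.3% DMSO.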

SMILES	D: 7-day proliferation assay: % Minimum GeoMean (%)
Cn1ncc(Br)c1CNC(=O)c1cccc(NCc2nnc(-c3ccncn3)n2C)c1	26.5%
Cc1nc(CNC(=O)c2cccc(NCc3nnc(-c4ccncn4)n3C)c2)c[nH]1	71.7%
Cn1c(CNc2cccc(C(=O)NCc3cccc(OCC(F)F)c3)c2)nnc1-c1ccncn1	102%
Cn1c(CNc2cccc(C(=O)NCc3cccc4c3OCCO4)c2)nnc1-c1ccncn1	37.4%
Cn1c(CNc2cccc(C(=O)NC3(c4nccs4)CCCC3)c2)nnc1-c1ccncn1	89.8%
Cn1c(CNc2cccc(C(=O)NCc3ncoc3C(F)(F)F)c2)nnc1-c1ccncn1	74.2%
Cn1c(CNc2cccc(C(=O)NCc3cc(C(F)(F)F)ccn3)c2)nnc1-c1ccncn1	82.6%
Cn1c(CNc2cccc(C(=O)NC(C)(C)c3ncccn3)c2)nnc1-c1ccncn1	76%
Cn1c(CNc2cccc(C(=O)NC3(c4ccccn4)CCC3)c2)nnc1-c1ccncn1	78.5%
Cn1c(CNc2cccc(C(=O)NC3(c4ccc(F)cn4)CC3)c2)nnc1-c1ccncn1	23.3%
Cc1csc(C2(NC(=O)c3cccc(NCc4nnc(-c5ccncn5)n4C)c3)CCC2)n1	64.5%
Cn1c(CNc2cccc(C(=O)NC3(c4ccncn4)CC3)c2)nnc1-c1ccncn1	75.4%
Cc1nc(C2(NC(=O)c3cccc(NCc4nnc(-c5ccncn5)n4C)c3)CC2)cs1	46.4%
Cn1c(CNc2cccc(C(=O)NCc3nncn3C3CC3)c2)nnc1-c1ccncn1	71.3%
CC(C)C(NC(=O)c1cccc(NCc2nnc(-c3ccncn3)n2C)c1)c1ccncc1 (stereo not drawn)	28.4%
Cn1c(CNc2cccc(C(=O)NCc3ncccc3C(F)(F)F)c2)nnc1-c1ccncn1	34.9%
C[C@H](NC(=O)c1cccc(NCc2nnc(-c3ccncn3)n2C)c1)C1NCCS1 (stereo partly drawn)	66.7%
CC(NC(=O)c1cccc(NCc2nnc(-c3ccncn3)n2C)c1)c1ncccc1Br (stereo not drawn)	65.5%
Cn1c(CNc2cccc(C(=O)NCc3cccc(C(F)(F)F)n3)c2)nnc1-c1ccncn1	10.5%
CCn1cnnc1CNC(=O)c1cccc(NCc2nnc(-c3ccncn3)n2C)c1	94.4%
CCC(NC(=O)c1cccc(NCc2nnc(-c3ccncn3)n2C)c1)c1ncccn1 (stereo not drawn)	62.2%
COc1cccc(F)c1C(C)NC(=O)c1cccc(NCc2nnc(-c3ccncn3)n2C)c1 (stereo not drawn)	64.2%
COC[C@H](NC(=O)c1cccc(NCc2nnc(-c3ccncn3)n2C)c1)c1cccnc1	43.5%
Cc1nc2n(n1)CCCC2NC(=O)c1cccc(NCc2nnc(-c3ccncn3)n2C)c1 (stereo not drawn)	77.8%
Cn1c(CNc2cccc(C(=O)NC(c3ccncc3)C3CCC3)c2)nnc1-c1ccncn1 (stereo not drawn)	72.5%
COc1cccc2c1CCC2NC(=O)c1cccc(NCc2nnc(-c3ccncn3)n2C)c1 (stereo not drawn)	30.3%

SMILES	D: 7-day proliferation assay: % Minimum GeoMean (%)
Cn1c(CNc2cccc(C(=O)N[C@H]3c4ccccc4CC[C@H]3O)c2)nnc1-c1ccncn1	90.6%
Cn1c(CNc2cccc(C(=O)NC3CCCc4ncccc43)c2)nnc1-c1ccncn1 (stereo not drawn)	53.7%
Cn1c(CNc2cccc(C(=O)NCc3ccc(C[S+](C)[O-])cc3)c2)nnc1-c1ccncn1 (stereo not drawn)	61.5%
CC(NC(=O)c1cccc(NCc2nnc(-c3ccncn3)n2C)c1)c1ccc2c(c1)CC(=O)N2C (stereo not drawn)	46.9%
CC1CC(NC(=O)c2cccc(NCc3nnc(-c4ccncn4)n3C)c2)c2ncnn21 (stereo not drawn)	89.4%
Cn1c(CNc2cccc(C(=O)N[C@H]3CCOc4c(F)cc(F)cc43)c2)nnc1-c1ccncn1	56.8%
Cn1c(CNc2cccc(C(=O)NC(CO)c3cccc(F)c3)c2)nnc1-c1ccncn1 (stereo not drawn)	66.6%
Cn1c(CNc2cccc(C(=O)NC3CCOc4ccccc43)c2)nnc1-c1ccncn1 (stereo not drawn)	51.1%
Cn1c(CNc2cccc(C(=O)NC(CO)c3cccc(C(F)(F)F)c3)c2)nnc1-c1ccncn1 (stereo not drawn)	33.3%
CC(O)C(NC(=O)c1cccc(NCc2nnc(-c3ccncn3)n2C)c1)c1ccccc1 (stereo not drawn)	69%
Cn1c(CNc2cccc(C(=O)NCc3nccc(Cl)c3F)c2)nnc1-c1ccncn1	61.7%
Cn1c(CNc2cccc(C(=O)NCc3ccc(-n4cncn4)cc3)c2)nnc1-c1ccncn1	67.7%
CC(NC(=O)c1cccc(NCc2nnc(-c3ccncn3)n2C)c1)c1nccn1-c1ccccc1 (stereo not drawn)	78.2%
COc1cnccc1CNC(=O)c1cccc(NCc2nnc(-c3ccncn3)n2C)c1	88.9%
Cn1c(CNc2cccc(C(=O)NCc3ccncc3)c2)nnc1-c1ccncn1	81.6%
CC(NC(=O)c1cccc(NCc2nnc(-c3ccncn3)n2C)c1)c1ccn[nH]1 (stereo not drawn)	84.4%
Cn1cc(C(NC(=O)c2cccc(NCc3nnc(-c4ccncn4)n3C)c2)c2ccccc2)cn1 (stereo not drawn)	63%
Cn1c(CNc2cccc(C(=O)NCc3ccc4c(c3)CNC4=O)c2)nnc1-c1ccncn1	57.2%
CNc1cc(CNC(=O)c2cccc(NCc3nnc(-c4ccncc4)[nH]3)c2)ccn1	83.7%
O=C(NCc1nccn1C(F)F)c1cccc(NCc2nnc(-c3ccncc3)[nH]2)c1	45.1%
Cn1c(CNC(=O)c2cccc(NCc3nnc(-c4ccncc4)[nH]3)c2)nnc1C1CC1	70.7%
Cc1ccnc(CNC(=O)c2cccc(NCc3nnc(-c4ccncc4)[nH]3)c2)n1	100%
CC(C)n1nccc1CNC(=O)c1cccc(NCc2nnc(-c3ccncc3)[nH]2)c1	37.7%
O=C(NCc1cn[nH]c1C(F)F)c1cccc(NCc2nnc(-c3ccncc3)[nH]2)c1	59.8%
Cc1nc(C)c(CNC(=O)c2cccc(NCc3nnc(-c4ccncc4)[nH]3)c2)nc1C	46.4%
Cc1ncccc1CNC(=O)c1cccc(NCc2nnc(-c3ccncc3)[nH]2)c1	83.4%

SMILES	D: 7-day proliferation assay: % Minimum GeoMean (%)
CC(C)n1ncnc1CNC(=O)c1cccc(NCc2nnc(-c3ccncc3)[nH]2)c1	92.7%
O=C(NCc1nccn1CC(F)(F)F)c1cccc(NCc2nnc(-c3ccncc3)[nH]2)c1	20.1%
O=C(NC1(c2cccnc2)CC1)c1cccc(NCc2nnc(-c3ccncc3)[nH]2)c1	61.9%
O=C(NCc1nnc2n1CCCCC2)c1cccc(NCc2nnc(-c3ccncc3)[nH]2)c1	94.4%
O=C(NC1(c2ccncc2)CC1)c1cccc(NCc2nnc(-c3ccncc3)[nH]2)c1	136%
O=C(NCCc1ncccn1)c1cccc(NCc2nnc(-c3ccncc3)[nH]2)c1	96.6%
Cn1cc2c(n1)CCCC2NC(=O)c1cccc(NCc2nnc(-c3ccncc3)[nH]2)c1 (stereo not drawn)	64.7%
Cc1cc(CNC(=O)c2cccc(NCc3nnc(-c4ccncc4)[nH]3)c2)ccn1	56.8%
O=C(NCc1nccc(C(F)F)n1)c1cccc(NCc2nnc(-c3ccncc3)[nH]2)c1	89.8%
CCn1ncc(Cl)c1CNC(=O)c1cccc(NCc2nnc(-c3ccncc3)[nH]2)c1	45.8%
Cc1nc(C)c(CNC(=O)c2cccc(NCc3nnc(-c4ccncc4)[nH]3)c2)o1	66.7%
CCn1nc(C)c(CNC(=O)c2cccc(NCc3nnc(-c4ccncc4)[nH]3)c2)c1C	26%
O=C(NC[C@H]1COCCO1)c1cccc(NCc2nnc(-c3ccncc3)[nH]2)c1	76%
O=C(NCc1ccncc1OCC(F)F)c1cccc(NCc2nnc(-c3ccncc3)[nH]2)c1	54.4%
O=C(NC1(c2ncccn2)CC1)c1cccc(NCc2nnc(-c3ccncc3)[nH]2)c1	134%
O=C(NCc1ccccc1-n1cncn1)c1cccc(NCc2nnc(-c3ccncc3)[nH]2)c1	45.3%
CCn1nnc(C)c1CNC(=O)c1cccc(NCc2nnc(-c3ccncc3)[nH]2)c1	55.6%
C[C@H](NC(=O)c1cccc(NCc2nnc(-c3ccncc3)[nH]2)c1)c1ccncc1	75.1%
COc1cnccc1CNC(=O)c1cccc(NCc2nnc(-c3ccncc3)[nH]2)c1	72.7%
CO[C@H]1C[C@H](CNC(=O)c2cccc(NCc3nnc(-c4ccncc4)[nH]3)c2)C1	68.6%
Cn1c(CNC(=O)c2cccc(NCc3nnc(-c4ccncc4)[nH]3)c2)nnc1C1CCC1	70.1%
O=C(NC1(c2ccncn2)CC1)c1cccc(NCc2nnc(-c3ccncc3)[nH]2)c1	61%
O=C(NCC1(F)CCC1)c1cccc(NCc2nnc(-c3ccncc3)[nH]2)c1	26.3%
CC1(CNC(=O)c2cccc(NCc3nnc(-c4ccncc4)[nH]3)c2)CCCOC1 (stereo not drawn)	89%
CC(NC(=O)c1cccc(NCc2nnc(-c3ccncc3)[nH]2)c1)c1cnco1 (stereo not drawn)	72.4%
Cc1cnc(C(C)NC(=O)c2cccc(NCc3nnc(-c4ccncc4)[nH]3)c2)o1 (stereo not drawn)	46.6%
